Our source for the T/C values is PubChem BioAssay AID298 (DTP/NCI, 2004).

Results filed as inconclusive are left out. Certain results were filed several times, with different values. They are shown here; other results are not. The source may hold further records. The values listed for one entry are repeated measurements across runs, samples, wells, individuals or studies. Brackets with × say how often a value occurs here.

For the experiment, the system named is MX-1 breast xenograft, intrarenal, nude mice, tumor weight. In words: NCI In Vivo Anticancer Drug Screen. Data for tumor model Human Mammary Carcinoma MX-1 Xenograft (intrarenal inoculation) in NU/NU BALB/C (nude) mice. The following applies: endpoint: mean tumor weight change, higher = larger tumour. The method, then:
The antitumor activity of compounds was measured in mice bearing transplantable tumors. Survival or tumor size were measured and the results are expressed as the measurement made in the treated group (T) divided by the measurement made in the vehicle treated control group (C). The tumor model used in this assay is Human Mammary Carcinoma MX-1 Xenograft (intrarenal inoculation) in NU/NU BALB/C (nude) mice

Where [1] appears, read: dose: 600.0 mg/kg/injection, schedule: Q04DX003 (ip), vehicle: saline with Tween-80.
Where [2] appears, read: dose: 150.0 mg/kg/injection, schedule: Q04DX003 (ip), vehicle: Klucel (hydroxypropylcellulose) (HPC).

Take `Oc1ccc(/C=N/N=C/c2ccc(O)c(O)c2)cc1O`: under setting [1], the T/C is 36 % of control and 103 % of control. Take `CC(C)(C[NH-])C[NH-].[Cl][Pt+2][Cl]`: the T/C (dose: 3.0 mg/kg/injection, schedule: Q04DX003 (ip), vehicle: water) was -100 % of control and 3 % of control. For the molecule `O=C1C=CC(=CC=C2C=CN(CCCCCCCCCCCO)C=C2)C=C1`, the T/C (dose: 100.0 mg/kg/injection, schedule: Q04DX003 (ip), vehicle: saline with Tween-80) is 35 % of control and 122 % of control. For the molecule `N[C@@H](Cc1ccc(N(CCCl)CCCl)cc1)C(=O)O`, the T/C (dose: 1.0 mg/kg/injection, schedule: Q04DX003 (ip), vehicle: saline with Tween-80) was -91 % of control and 10 % of control. On to `N=C(N)c1nn(C2OC(CO)C(O)C2O)c2nc[nH]c(=O)c12` (centres undefined), for which the T/C (dose: 50.0 mg/kg/injection, schedule: Q04DX003 (ip), vehicle: Klucel + Tween-80) is 27 % of control and 86 % of control; the T/C (dose: 100.0 mg/kg/injection, schedule: Q04DX003 (ip), vehicle: Klucel + Tween-80) is 9 % of control and 36 % of control. On to `O=C1C=C(N2CC2)C(=O)C(N2CC2)=C1N1CC1`, for which the T/C runs as follows: (dose: 50.0 micrograms/kg/injection, schedule: Q04DX003 (ip), vehicle: saline) -55 % of control, 3 % of control, 73 % of control; (dose: 100.0 micrograms/kg/injection, schedule: Q04DX003 (ip), vehicle: saline) -87 % of control, 1 % of control, 30 % of control; (dose: 200.0 micrograms/kg/injection, schedule: Q04DX003 (ip), vehicle: saline) -100 % of control (2×) and 7 % of control. Turning to `COc1cc([C@@H]2c3cc4c(cc3[C@@H](OC3OC5COC(C)OC5C(O)C3O)[C@H]3COC(=O)[C@H]23)OCO4)cc(OC)c1O` (some centres undefined), the T/C by setting is: (dose: 8.0 mg/kg/injection, schedule: Q04DX003 (ip), vehicle: saline) 38 % of control and 91 % of control; (dose: 16.0 mg/kg/injection, schedule: Q04DX003 (ip), vehicle: saline) 17 % of control, 20 % of control, 102 % of control; (dose: 32.0 mg/kg/injection, schedule: Q04DX003 (ip), vehicle: saline) 4 % of control, 5 % of control, 96 % of control.

For `Nc1nc2ncn(O)c2c(=O)[nH]1`, where the note is “dose: 12.5 mg/kg/injection, schedule: Q04DX003 (ip), vehicle: water”, the T/C was 53 % of control and 103 % of control.

In the case of `CN(N=O)C(N)=O`, where the note is “dose: 100.0 mg/kg/injection, schedule: Q04DX003 (sc), vehicle: saline”, the T/C was -19 % of control and 92 % of control.

For the molecule `O=NN(CCCl)C(=O)NCCCl`, the T/C (dose: 27.0 mg/kg/injection, schedule: Q04DX003 (ip), vehicle: saline + alcohol) was 6 % of control and 34 % of control. In the case of `C=C(C)/C([O-])=N/[N+](C)(C)CC(O)CCCCCCCCCCCC` (centres undefined), the T/C (dose: 160.0 mg/kg/injection, schedule: Q04DX003 (ip), vehicle: Klucel (hydroxypropylcellulose) (HPC)) is 69 % of control and 121 % of control. For `CN(Cc1cnc2nc(N)nc(N)c2n1)c1ccc(C(=O)N[C@@H](CCC(=O)O)C(=O)O)cc1`, the T/C (dose: 12.0 mg/kg/injection, schedule: Q04DX003 (ip), vehicle: sodium bicarbonate) was 111 % of control and 168 % of control; the T/C (dose: 27.0 mg/kg/injection, schedule: Q04DX003 (ip), vehicle: sodium bicarbonate) is 16 % of control and 72 % of control. Consider `c1ccc2[nH]c(CN(CCN(Cc3nc4ccccc4[nH]3)Cc3nc4ccccc4[nH]3)Cc3nc4ccccc4[nH]3)nc2c1`, for which the T/C (dose: 12.5 mg/kg/injection, schedule: Q04DX003 (ip), vehicle: DMSO) is 58 % of control and 93 % of control; the T/C (dose: 25.0 mg/kg/injection, schedule: Q04DX003 (ip), vehicle: DMSO) was 73 % of control and 100 % of control. For the molecule `O=NNc1cnccn1`, the T/C (dose: 100.0 mg/kg/injection, schedule: Q04DX003 (ip), vehicle: water) is -100 % of control (2×) and -29 % of control.

Regarding `NC(=O)c1[nH]cnc1O`, the T/C (dose: 200.0 mg/kg/injection, schedule: Q04DX003 (ip), vehicle: saline with Tween-80) is 69 % of control and 103 % of control. As to `CCOC1=Cc2c(oc3c(C(C)(C)C)cc(OCC)cc23)OC(C(C)(C)C)=C1`, the T/C (dose: 1200.0 mg/kg/injection, schedule: Q04DX003 (sc), vehicle: saline with Tween-80) was 64 % of control and 120 % of control. For the molecule `COc1cc([C@@H]2c3cc4c(cc3[C@@H](OC3OC5CO[C@@H](c6cccs6)OC5C(O)C3O)[C@H]3COC(=O)[C@H]23)OCO4)cc(OC)c1O` (some centres undefined), the T/C is, setting by setting: (dose: 1.1 mg/kg/injection, schedule: Q01DX010 (ip), vehicle: saline) 47 % of control and 79 % of control; (dose: 2.19 mg/kg/injection, schedule: Q01DX010 (ip), vehicle: saline) 28 % of control and 121 % of control; (dose: 4.38 mg/kg/injection, schedule: Q01DX010 (ip), vehicle: saline) 11 % of control and 121 % of control. Turning to `C=Cc1cc(OC)c2c(c1)c(=O)oc1c2cc(OC)c2c(O)ccc(C3OC(C(C)O)C(O)C3O)c21` (centres undefined), the T/C under setting [2] is 14 % of control, 29 % of control, 49 % of control. Regarding `Cc1ccc2c(c1)n([O-])c1cc(Cl)ccc1[n+]2=O`, the T/C by setting is: (dose: 75.0 mg/kg/injection, schedule: Q04DX003 (ip), vehicle: saline with Tween-80) 81 % of control and 107 % of control; under setting [1], 29 % of control and 61 % of control. With `[N-]=[N+]=CC(=O)CCC(NC(=O)OCc1ccccc1)C(=O)OCc1ccccc1` (centres undefined), under setting [2], the T/C was 15 % of control and 42 % of control. With `CO[C@@]12[C@H](COC(N)=O)C3=C(C(=O)C(C)=C(N)C3=O)N1C[C@@H]1N[C@@H]12`, the T/C reads like this: (dose: 3.0 mg/kg/injection, schedule: Q04DX003 (sc), vehicle: saline) -28 % of control and 1 % of control; (dose: 6.0 mg/kg/injection, schedule: Q04DX003 (sc), vehicle: saline) -100 % of control and 1 % of control; (dose: 12.0 mg/kg/injection, schedule: Q04DX003 (sc), vehicle: saline) -90 % of control and -13 % of control. Consider `O=C[C@@H](CO)O[C@H](C=O)c1c[nH]c(=O)[nH]c1=O`, for which, under “dose: 50.0 mg/kg/injection, schedule: Q04DX003 (ip), vehicle: saline”, the T/C is reported as 38 % of control, 58 % of control, 69 % of control.

On to `COc1cccc(Sc2ccc([N+](=O)[O-])c3no[n+]([O-])c23)c1`, for which the T/C was 46 % of control and 98 % of control (dose: 3.75 mg/kg/injection, schedule: Q04DX003 (ip), vehicle: saline with Tween-80); 57 % of control and 96 % of control (dose: 15.0 mg/kg/injection, schedule: Q04DX003 (ip), vehicle: saline with Tween-80). As to `Clc1ccccc1C(Nc1cnccn1)Nc1cnccn1`, the T/C is 58 % of control and 100 % of control (dose: 150.0 mg/kg/injection, schedule: Q04DX003 (ip), vehicle: saline with Tween-80); 37 % of control and 74 % of control under setting [1]. In the case of `C[C@]12CC[C@H](OC(=O)Cc3ccc(N(CCCl)CCCl)cc3)CC1=CC[C@@H]1[C@@H]2CC[C@]2(C)C(=O)CC[C@@H]12`, the T/C is, setting by setting: (dose: 125.0 mg/kg/injection, schedule: Q04DX003 (ip), vehicle: saline with Tween-80) -60 % of control, 10 % of control, 18 % of control; (dose: 250.0 mg/kg/injection, schedule: Q04DX003 (ip), vehicle: saline with Tween-80) -92 % of control, -3 % of control, 14 % of control; (dose: 500.0 mg/kg/injection, schedule: Q04DX003 (ip), vehicle: saline with Tween-80) -100 % of control (2×) and 1 % of control; (dose: 1000.0 mg/kg/injection, schedule: Q04DX003 (ip), vehicle: saline with Tween-80) -100 % of control (2×) and 1 % of control. Regarding `Nc1ncnc2c1ncn2C1OC(CO)C(O)C1O` (centres undefined), the T/C is 58 % of control and 110 % of control (dose: 37.5 mg/kg/injection, schedule: Q04DX003 (sc), vehicle: saline); 31 % of control and 65 % of control (dose: 75.0 mg/kg/injection, schedule: Q04DX003 (sc), vehicle: saline). `COc1cc2oc3c(C)c(=O)cc4oc(-c5ccccc5)cc(c2c2c1CCC(c1ccccc1)O2)c43` (centres undefined): the T/C (dose: 28.0 mg/kg/injection, schedule: Q04DX003 (ip), vehicle: Klucel (hydroxypropylcellulose) (HPC)) is 50 % of control and 114 % of control. In the case of `COC(COC(=O)N1CCN(C=O)CC1)C1=C(N2CC2)C(=O)C(C)=C(N2CC2)C1=O` (centres undefined), the T/C was -73 % of control and -3 % of control (dose: 6.0 mg/kg/injection, schedule: Q04DX003 (ip), vehicle: saline); -70 % of control and 13 % of control (dose: 12.0 mg/kg/injection, schedule: Q04DX003 (ip), vehicle: saline). Turning to `NC(CNC(=O)CBr)C(=O)O` (centres undefined), the T/C was 43 % of control and 84 % of control (dose: 75.0 mg/kg/injection, schedule: Q04DX003 (sc), vehicle: water); 52 % of control and 91 % of control (dose: 100.0 mg/kg/injection, schedule: Q04DX003 (sc), vehicle: water).
